Laboratory results: PubChem BioAssay AID493014 (National Center for Advancing Translational Sciences (NCATS), 2011)
About 170 (0.05%) of roughly 340,000 compounds were called active. Not shown: some 26% with an inconclusive outcome. The call rests on the fitted dose curve; in most records, active means well fitted inhibition curve with a large enough effect in the signal ratio, with a control signal flat (not every such curve was filed as active); inconclusive means small, poorly fitted or top-dose-only effect, or effect the other way, or a change in a side signal; inactive means flat fitted curve, though single readings scatter; the % refers to the signal ratio. The entries are a selection whose mix differs from that of the whole data set.

Test: qHTS Assay to Find Inhibitors of Chronic Active B-Cell Receptor Signaling;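 on activity change, negative = inhibition: plate controls were basal doxycycline-induced cells for no effect and cells given 10 µM MG132 for full effect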
Conditions: ABC-DLBCL IkBa-CBG/CBR reporter, luminescence ratio (green luciferase fused to IkBa over red control in TMD8 lymphoma cells), 4 h; series mostly up to 46.1 µM; activity change, negative = inhibition: at the top concentration
From the text: NIH Molecular Libraries Probe Production Network [MLPCN] NIH Chemical Genomics Center [NCGC] MLPCN Grant: 1 R03 DA031086-01A1 PI Name: Dr. R. Eric Davis NCGC Assay Overview: Diffuse large B-cell lymphoma (DLBCL) is the most common category of non-Hodgkin lymphoma, with ~20,000 new cases per year in the United States. DLBCL should be regarded as a collection of different neoplasms. Microarray gene expression analysis has defined two principal types of DLBCL, named for their similarity to normal B cell stages or activation states: a germinal center B-cell (GCB) type, and an activated B-cell (ABC) type. In ABC-DLBCL, a constitutive high-level activity of the NF-kappaB family of transcription factors has been observed (1) and NF-kappaB target genes are more highly expressed in ABC primary tumors than in GCB tumors. Functional studies have shown a constitutive high-level activity of the IkappaB (inhibitor of kappa-B) kinase (IKK) complex. […] Further analysis of DLBCL primary tumors for NF-kappaB target gene expression imply that although CARD11 is required for constitutive IKK activity in all ABC-DLBCL lines, mutations in CARD11 may be the root cause of IKK activation only in lines or tumors with such mutations. In other words, CARD11 mutations may explain NF-kappaB activation in only 10% of ABC-DLBCL cases. […] This process has been termed 'chronic active BCR signaling' (CABS). The goal of this screen is to find small-molecule inhibitors of the CABS pathway found in ABC-DLBCL lines using a cell-based assay that measures IkappaBalpa stability, which has already been extensively validated in the OCI-Ly3 line (PubChem AID:445; REF: 4). […] The assay uses green (CBG68) and red (CBR) emitting beetle luciferases [Chroma-GloTM developed by Promega Corp.] where the green luciferase is fused to IkappaBalpha and the red luciferase is present in its native state. Both luciferase genes are stably present in the TMD8 human ABC DLBCL cell line, but their expression is under the control of tetracycline-inducible promoters. Following the addition of doxycycline to induce expression of the luciferases, the green luminescence in control cultures rises only slowly because the CBG fusion partner IkappaBalpha is targeted by IKK activity for rapid degradation. In contrast, green luminescence rises rapidly in the presence of proteasome inhibitors or IKK inhibitors. The rise in red luminescence of CBR is not affected by proteasome or IKK inhibitors, and serves as normalization for cell number and nonspecific effects. Compounds were screened as a concentration-titration series that ranged from 46 uM to 3 nM.
NCGC Assay Protocol Summary: Cells were seeded in 1536-well plates at 5000 cells/4uL in IMDM medium containing 0.5% FBS, w/o phenol red, 1% penicillin/streptomycin. Then, 23 nL of compounds or DMSO were delivered to each well using a pin tool. One uL 20ng/ml doxycycline was then dispensed into white solid 1536-well plates and the plates were incubated at 37C/5% C02 in a cell incubator for 4 hrs. Then 4 uL luminescent substrate mix (in-house prepared: 150 mM Tris-Cl, pH 7.6, 3 mM MgCl2, 1% Triton X-100, 5 mM DTT, 0.2 mM CoA, 0.15 mM ATP, 5 mM D-luciferin, final concentrations) was added to each well. The plate was incubated at r.t. for 10-15 min. The plates were measured on a ViewLux plate reader for green luminescence (540/20 nm filter) and red luminescence (618/8 nm filter). The green and red luminescent signals were corrected for red and green luminescence filter overlap using previously determined filter calibration constants (determined using the procedure outlined in the Promega Technical Manual; REF 4). The %Activity was determined from the ratio of corrected green/red luminescent values. MG132 were used as control. […] Red luminescent %Activity was normalized to the difference between red luminesence in basal cells (0%Activity) and zero luminescence (-100% Activity). […]
Potency means the concentration at half of the fitted maximal effect.

Row | SMILES | activity change, negative = inhibition | Potency
1 | O=C(O)C/C=C(/NC(=O)OCc1ccccc1)C(=O)OCc1ccccc1 | inactive: 7.24% | –
2 | CC1CC(Nc2ccccc2)c2ccccc2N1C(=O)c1cccnc1 (stereo unspecified) | inactive: -17.4% | –
3 | O=C(Oc1c(Cl)cc(Cl)c2cccnc12)c1cccc([N+](=O)[O-])c1 | – | active: 20.6 µM
4 | N#C/C(=C\c1cn(CC(=O)O)c2ccccc12)C(=O)NCc1ccccc1 | inactive: 1.99% | –
5 | COc1ccccc1[C@@]1(C)ON(c2ccccc2C(F)(F)F)C1=O | inactive: 1.11% | –
6 | CC(C)(C)OC(=O)C[C@@H]1C/C=C\C[C@@H](CC(=O)N[C@@H](CO)Cc2ccccc2)C(=O)N2CCC[C@H]2COC1=O | inactive: -1.12% | –
7 | CC(C)(C)[C@H]1C=C(C(=O)NC2CC2)O[C@@H](OCc2ccc(CO)cc2)C1 | inactive: 0.472% | –
8 | COC(C[C@H]1O[C@H]1[C@H](O)[C@H](C)OCc1ccccc1)OC | inactive: -1.07% | –
9 | O=C(c1ccccc1)c1ccccc1C(=O)c1ccccc1 | inactive: -6.61% | –
10 | Cc1ccc(NC(=O)C2CCN(S(=O)(=O)c3ccc4c(c3)CCCC(=O)N4)CC2)c(Br)c1 | inactive: 2.7% | –
11 | C[C@H](C(=O)O)c1n[nH]c(=O)c2ccccc12 | inactive: -0.501% | –
12 | Cc1ccccc1OCCn1cnc2c(N)ncnc21 | – | active: 18.4 µM
13 | Cc1ccc(/C=[N+](\[O-])c2ccc(N(C)C)cc2)c2nsnc12 | – | active: 10 µM
14 | CCOc1ccc(C2=Nn3c(nnc3-c3ccc(OC)cc3)SC2)cc1 | – | active: 12.6 µM
15 | C[C@]12C(=O)N(c3ccc(F)cc3)C(=O)N1[C@@H]1c3ccccc3OC[C@@H]1[C@H]2c1ccccc1 | inactive: -2.27% | –
16 | COC(=O)Cc1csc(N)n1 | inactive: -7.34% | –
17 | C[C@H](NC(=O)[C@@H]1Cc2ccccc2CN1)C(=O)Nc1ccc2c(c1)OCCO2 | inactive: 10.4% | –
18 | C[C@H](CO)N1C[C@H](C)[C@@H](CN(C)S(=O)(=O)c2ccccc2)Oc2c(NC(=O)Nc3ccc(C(F)(F)F)cc3)cccc2C1=O | inactive: -0.0005% | –
19 | O=C(O)c1cccnc1SCc1cccc(Cl)c1 | inactive: 0.555% | –

Row | SMILES | activity change, negative = inhibition | Potency
20 | Cc1cccc(CNc2ncnc3ccc(-c4ccccc4Cl)cc23)c1 | inactive: -8.17% | –
21 | C=CC[C@H](CC(=O)N[C@H](CO)Cc1ccccc1)C(=O)N[C@H](COC(=O)[C@@H](CC=C)CC(=O)OC(C)(C)C)Cc1c[nH]c2ccccc12 | inactive: 1.7% | –
22 | C=CCC[C@@H](Cc1ccc(F)cc1)C(=O)OCCNC(=O)[C@@H](CC=C)CC(=O)N[C@@H](CO)Cc1ccccc1 | inactive: -1.41% | –
23 | C=CC[C@H](CC(=O)NCCO)C(=O)N[C@@H](COC(=O)[C@@H](CC=C)Cc1ccc(F)cc1)Cc1ccccc1 | inactive: -0.61% | –
24 | Cc1csc(=Nc2ccccc2)n1C | inactive: -1.74% | –
25 | C=CCOC(=O)C1=C[C@@H](c2coc3ccccc3c2=O)[C@H](CCCO)[C@@H](OCC)O1 | inactive: 1.51% | –
26 | COc1ccc(/C=C2\N=C3CCCCCN3C2=O)cc1 | inactive: -27.5% | –
27 | CC(C)CN(CCCNC(=O)CN1N=C(c2ccc(Cl)cc2)CCC1=O)CC(C)C | inactive: -1.33% | –
28 | COc1ccc(C(=O)NC(C(=O)NCCc2ccc3c(c2)OCCO3)C(C)C)cc1 (stereo unspecified) | inactive: -14.2% | –
29 | C=CCC[C@H](Cc1ccc(F)cc1)C(=O)OC[C@H](Cc1c[nH]c2ccccc12)NC(=O)[C@H](CC=C)CC(=O)N[C@H](CO)Cc1ccccc1 | inactive: 2.62% | –
30 | O=C1CCC(N2C(=O)c3ccccc3C2=O)C(=O)N1 (stereo unspecified) | inactive: -5.13% | –
31 | O=C1N[C@@H](Cc2c[nH]c3ccccc23)COC(=O)[C@@H](Cc2ccc(F)cc2)C/C=C\C[C@H]1CC(=O)N(CCO)Cc1ccccc1 | inactive: -2.73% | –
32 | O=C(C[C@@H]1C/C=C\CC[C@@H](Cc2ccc(F)cc2)C(=O)OC[C@@H]2CCCN2C1=O)N[C@H](CO)Cc1ccccc1 | inactive: -1.86% | –
33 | O=C(C[C@H]1C/C=C\CC[C@H](Cc2ccc(F)cc2)C(=O)OC[C@H]2CCCN2C1=O)N[C@H](CO)Cc1ccccc1 | inactive: -6.94% | –
34 | O=C1N=C(N2CCN(c3ccccc3)CC2)S/C1=C\c1ccco1 | inactive: 0.052% | –
35 | O=C(O)/C=C\C(=O)Nc1ccc(OC(F)F)cc1 | inactive: 8.13% | –
36 | CCOC(=O)[C@@H]1[C@H]2COc3cc(OC)ccc3[C@@H]2N2C(=O)N(c3cccc(F)c3)C(=O)[C@@]12C | inactive: -5.48% | –
37 | Oc1ccc(CNc2ccccc2F)c2cccnc12 | inactive: -8.12% | –
38 | C#Cc1ccc([C@@H]2C=C(C(=O)O)O[C@H](OCc3ccc(CO)cc3)C2)cc1 | inactive: -7.86% | –

Row | SMILES | activity change, negative = inhibition | Potency
39 | NC1=NC[C@H](Cc2ccc(O)cc2)N1CCc1cccc2ccccc12 | inactive: -3.05% | –
40 | COC(=O)CCCC[C@@H]1SC[C@@H](NC(=O)OC)[C@@H]1NC(=O)OC | inactive: -2.72% | –
41 | CCOC(=O)[C@@H]1[C@H]2COc3cc(OC)ccc3[C@H]2N2C(=O)N(c3ccc(Cl)cc3)C(=O)[C@]12C | inactive: -2.33% | –
42 | O=C(O)C1=C[C@@H](c2csc3ccccc23)C[C@@H](OCCCCO)O1 | inactive: -19.2% | –
43 | COCCN=C1N[C@@H](c2ccc(Br)cc2)C(C(=O)OC)=C(C)N1Cc1ccccc1 | inactive: 10% | –
44 | COc1ccc(C2=Nn3c(nnc3-c3ccccc3OC)SC2)cc1OC1CCOC1 (stereo unspecified) | – | active: 8.2 µM
45 | Clc1ccccc1CN1CCN(/N=C/C=C/c2ccco2)CC1 | inactive: 0.437% | –
46 | CC(=O)c1ccc(-c2csc(N3CCC(C(N)=O)CC3)n2)cc1 | inactive: -0.811% | –
47 | CC(C)(C)[C@H]1C=C(C(=O)N2CCN(Cc3ccc4c(c3)OCO4)CC2)O[C@@H](OCc2ccc(CO)cc2)C1 | inactive: -15.4% | –
48 | O=C(O)c1ccc2c(c1)C(=O)N(C(Cc1ccccc1)C(=O)O)C2=O (stereo unspecified) | inactive: -0.787% | –
49 | COc1ccc(NC(=O)CN2C(=O)COc3ccc(S(=O)(=O)N4CCCCCC4)cc32)cc1 | inactive: 5.98% | –
50 | Cc1ccsc1/C=C1\SC(N2CCOCC2)=NC1=O | inactive: -13.7% | –
51 | Cn1cc(/C=N/n2cnc3scc(-c4ccc(Cl)cc4)c3c2=O)c2ccccc21 | – | active: 3.55 µM
52 | C#C[C@]1(O)CC[C@H]2[C@@H]3CCC4=CC(=O)CC[C@@H]4[C@H]3CC[C@@]21CC | – | inactive
53 | O=C(C1=C[C@H](c2ccc(C(F)(F)F)cc2)C[C@H](OCCCCO)O1)N1CCN(Cc2ccccc2)CC1 | inactive: -5.15% | –
54 | NC1=NC[C@H](Cc2ccc(O)cc2)N1CC1CCCCC1 | inactive: -1.33% | –
55 | O=C(CCN1C(=O)/C(=C\c2ccccc2)SC1=S)NNC(=O)c1cccnc1 | inactive: -0.0566% | –
56 | O=C(C[C@@H]1C/C=C\C[C@H](NC(=O)OCC2c3ccccc3-c3ccccc32)C(=O)OC[C@H]2CCCN2C1=O)N[C@H](CO)Cc1ccccc1 | inactive: -19.3% | –
